# In the RNAGym collection of RNA variant scans (doi:10.1093/nar/gkz1192):
# Read counts are not given, so values of variants with three or more changes are uncertain.
# B1: CPEB3 Ribozyme (parent)
# chain: UAACAGGGGGCCACAGCAGAAGCGUUCACGUCGCAGCCCCUGUCAGAUUCUGGUGAAUCUGCGAAUUCUGCUGUAUAUCUC
# Variants of: B1
# Assay: self-cleavage, relative activity (ratio to wild type); higher = more cleavage; in vitro, sequencing
# How it was run: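 Libraries of CPEB3 self-cleaving ribozyme mutants came from rounds of error-prone PCR and carried barcodes, which DNA sequencing matched to variants. In vitro transcription used T7 RNA polymerase at 37°C for 5 hours, with a further 15 min in DNase I before EDTA stopped the reaction; the ribozymes cleaved during both steps. The RNA was reverse transcribed with template switching and sequenced on Illumina. Relative activity is the cleaved/total read fraction of a variant divided by that of the unmutated ribozyme, averaged over three batches with at least 5 reads.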
row,Variant,self-cleavage
1,UAACAGGGGGCCACAGCAGAAGCGUUCGCGUCGCAGCCCCUGUCAGACUCUGGUGAAUCUGGGAAUUCUGCUGUAUAUCUC,0.12
2,UAACAGGGGGCCACAGCAGAAGCGUUCGCGUCGCAGCCCCUGUCAGACUCUGGAGAAUCUGCGAUUUCUGCUGUAUAUCUC,0.09
3,UAACAGGGGGCCACAGCAGAAGCGUUCGCGUCGCAGCCCCUGUCAGACUCUGGAGAAUCUGCGAAUUCUGCUGUAUUUCUC,0.22
4,UAACAGGGGGCCACAGCAGAAGCGUUCGCGUCGCAGCCCCUGUCAGACUCUGGCGAAUCUGCGAAUUCUGCUGUAUAUCUC,0.21
5,UAACAGGGGGCCACAGCAGAAGCGUUCGCGUCGCAGCCCCUGUCAGACUCUGGGGAAUCUGCGAAUUCAGCUGUAUAUCCC,0.1
6,UAACAGGGGGCCACAGCAGAAGCGUUCGCGUCGCAGCCCCUGUCAGACUCUGGUGAAUCGGCGAAUUCCGCUGUAUAUCUC,0.09
7,UAACAGGGGGCCACAGCAGAAGCGUUCGCGUCGCAGCCCCUGUCAGACUCUGGUGAAUCUGCGAAUACUGCUGUUUAUCUC,0.19
8,UAACAGGGGGCCACAGCAGAAGCGUUCGCGUCGCAGCCCCUGUCAGACUCUGGUGAAUCUGCGAAUUCCGCUGCAUAUCUC,0.18
9,UAACAGGGGGCCACAGCAGAAGCGUUCGCGUCGCAGCCCCUGUCAGAUACUGGUGAAUCUGCGAAUUCUGCCGUAAAUCUC,0.35
10,UAACAGGGGGCCACAGCAGAAGCGUUCGCGUCGCAGCCCCUGUCAGAUACUGGUGAAUCUGCGAAUUCUGCGGUAUAUCUC,0.47
11,UAACAGGGGGCCACAGCAGAAGCGUUCGCGUCGCAGCCCCUGUCAGAUCCUGGUGGAUCUGCGAAUUCUGCUGUAUAUCUC,0.41
12,UAACAGGGGGCCACAGCAGAAGCGUUCGCGUCGCAGCCCCUGUCAGAUCCUGGUGAAUCUGCGGAUUCUGCUGUGUAUCUC,0.07
13,UAACAGGGGGCCACAGCAGAAGCGUUCGCGUCGCAGCCCCUGUCAGAUCCUGGUGAAUCUGCGGAUUCUGCUGAAUAUCCC,0.56
14,UAACAGGGGGCCACAGCAGAAGCGUUCGCGUCGCAGCCCCUGUCAGAUCCUGGUGAAUCUGCGAGUUCUGCUGUAUAUCUC,0.12
15,UAACAGGGGGCCACAGCAGAAGCGUUCGCGUCGCAGCCCCUGUCAGAUCCUGGUGAAUCUGCGAUUUCUGCUGUAUAUCUC,0.13
16,UAACAGGGGGCCACAGCAGAAGCGUUCGCGUCGCAGCCCCUGUCAGAUCCCGGUGAAUCUGCGAAUUCUGCUGUAGAUCUC,0
17,UAACAGGGGGCCACAGCAGAAGCGUUCGCGUCGCAGCCCCUGUCAGAUCCUGGAGAAUCUGCGUAUUCAGCUGUAUAUCUC,0

row,Variant,self-cleavage
1,UAACAGGGGGCCACAGCAGAAGCGUUCGCGUCGCAGCCCCUGUCAGAUCCUGGUGAAUCAGCGAAUUCAGCUGUAUUUCUC,0.06
2,UAACAGGGGGCCACAGCAGAAGCGUUCGCGUCGCAGCCCCUGUCAGAUCCUGGUGAAUCAGCGAAUUCUGCAGUAUAUCUC,0.09
3,UAACAGGGGGCCACAGCAGAAGCGUUCGCGUCGCAGCCCCUGUCAGAUCCUGGUGAAUCUGCGAACUCUGCUGUGUAUCUC,0.13
4,UAACAGGGGGCCACAGCAGAAGCGUUCGCGUCGCAGCCCCUGUCAGAUCCUGGUGAAUCUGCGAAUUCAGCUGUAUAUCUC,0.08
5,UAACAGGGGGCCACAGCAGAAGCGUUCGCGUCGCAGCCCCUGUCAGAUCCUGGUGAAUCUGCGAAUUCUGCAGUAUAUCUC,0.1
6,UAACAGGGGGCCACAGCAGAAGCGUUCGCGUCGCAGCCCCUGUCAGAUCCUGGUGAAUCUGCGAAUUCUGCUGUAUACCUC,0.1
7,UAACAGGGGGCCACAGCAGAAGCGUUCGCGUCGCAGCCCCUGUCAGAUUCAGGUGGGUCUGCGAAUUCUGCUGUAUAUCUC,0.38
8,UAACAGGGGGCCACAGCAGAAGCGUUCGCGUCGCAGCCCCUGUCAGAUUCAGGUGAGUCUGCGAAUUCUGCCGUAUAUCUC,0.37
9,UAACAGGGGGCCACAGCAGAAGCGUUCGCGUCGCAGCCCCUGUCAGAUUCAGGUGAAUCUGCGAGUUCUGCUGUAUAUCUC,0.18
10,UAACAGGGGGCCACAGCAGAAGCGUUCGCGUCGCAGCCCCUGUCAGAUUCAGGUGAAUCUGAGAAUUCUGCUGUAUAUCUC,0.19
11,UAACAGGGGGCCACAGCAGAAGCGUUCGCGUCGCAGCCCCUGUCAGAUUCAGGUGAAUCUGCGAAUUCUGCUGUAUAUCUU,0.42
12,UAACAGGGGGCCACAGCAGAAGCGUUCGCGUCGCAGCCCCUGUCAGAUUCACGUGAAUCCGCGAAUUCAGCUGUAUAUCUC,0.26
13,UAACAGGGGGCCACAGCAGAAGCGUUCGCGUCGCAGCCCCUGUCAGAUUCAGGUGAAACUGCGAAUUCUGCUGUAUAUCUC,0.2
14,UAACAGGGGGCCACAGCAGAAGCGUUCGCGUCGCAGCCCCUGUCAGAUUCAGGUGAAUCCGCGAAUUCUGCUGUAUAUCUC,0.2
15,UAACAGGGGGCCACAGCAGAAGCGUUCGCGUCGCAGCCCCUGUCAGAUUCCGGUGAAUCUGCGGAUUCUGCUGUAUAUCUC,0.33
16,UAACAGGGGGCCACAGCAGAAGCGUUCGCGUCGCAGCCCCUGUCAGAUUCCGGUGAAUCUGCGGAUUCUGCUGUAUACCUC,0.35
17,UAACAGGGGGCCACAGCAGAAGCGUUCGCGUCGCAGCCCCUGUCAGAUUCCGGUGAAUCUGCGAGUUCUGCCGUAUAUCUC,0.23
